# Assay results: the supplement of paper PMC4967469
# pIC50: −log10 of the molar value. Lines with a small IC50 respond at low doses; a limit (>, <) means that the fit lies beyond the doses tested. AUC is the area under the same curve over the 256-fold range up to the top dose, as a fraction; values near 1 show little effect. For some assays here: Where the top dose is marked as inferred, it was derived from the fitted curves, not read from the paper. For some assays here: Where an entry number is given, a second screen of the drug exists; the two often differ.
# How the values were obtained:
# Experiment in all cases: Viability of human cancer cell lines after 72 h of drug (GDSC screen)
# CEP-701 = compound: C[C@]12O[C@H](C[C@]1(O)CO)n1c3ccccc3c3c4c(c5c6ccccc6n2c5c31)CNC4=O [CEP-701]; details: top dose 2 µM; top dose inferred
# Procedure: (§1)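 Human cancer cell lines in 384-well plates, medium with 10% serum, drug for 72 h over a 256-fold dose range (nine 2-fold or five 4-fold steps up to the top dose). Adherent lines were fixed and stained with the nucleic acid dye Syto60, suspension lines read with resazurin; signal relative to control wells, capped at 0 and 100%. One two-parameter sigmoid per drug and line, fitted in a mixed model over all curves with the slope shared within a line.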
# SB 216763 = compound: Cn1cc(C2=C(c3ccc(Cl)cc3Cl)C(=O)NC2=O)c2ccccc21 [SB 216763]; details: top dose 10 µM; top dose inferred
# Procedure: as §1
# AR-42 = compound: CC(C)[C@H](C(=O)Nc1ccc(C(=O)NO)cc1)c1ccccc1 [AR-42]; details: top dose 5.12 µM; top dose inferred
# Procedure: as §1
# Pazopanib = compound: Cc1ccc(Nc2nccc(N(C)c3ccc4c(C)n(C)nc4c3)n2)cc1S(N)(=O)=O [Pazopanib]; details: top dose 8 µM
# Procedure: as §1
# GDC0941 = compound: CS(=O)(=O)N1CCN(Cc2cc3nc(-c4cccc5[nH]ncc45)nc(N4CCOCC4)c3s2)CC1 [GDC0941]; details: top dose 4 µM; screen: GDSC drug entry 1527; top dose inferred
# Procedure: as §1
Cell Line,AUC (CEP-701),pIC50 (CEP-701),AUC (SB 216763),pIC50 (SB 216763),AUC (AR-42),pIC50 (AR-42),AUC (Pazopanib),pIC50 (Pazopanib),AUC (GDC0941),pIC50 (GDC0941)
"MG-63 (osteosarcoma, adherent)",0.689,6.33,0.973,< 5.00,0.984,< 5.29,0.583,6.06,–,–
"NCI-H647 (non-small cell lung carcinoma, adherent)",0.715,6.28,0.967,< 5.00,0.562,6.32,0.94,< 5.10,–,–
"KARPAS-620 (haematopoietic neoplasm, suspension)",0.61,6.62,0.991,< 5.00,0.319,6.97,0.991,< 5.10,–,–
"H290 (mesothelioma, adherent)",0.35,7.30,0.989,< 5.00,–,–,0.979,< 5.10,0.834,5.64
"MDA-MB-453 (breast, adherent)",0.84,5.79,0.982,< 5.00,0.254,7.24,0.958,< 5.10,–,–
"AGS (stomach, adherent)",0.224,7.66,0.989,< 5.00,0.53,6.42,0.989,< 5.10,–,–
"VMRC-RCW (kidney, adherent)",0.938,< 5.70,0.981,< 5.00,0.68,6.01,0.914,< 5.10,–,–
"HCC70 (breast, adherent)",0.86,5.79,0.988,< 5.00,0.641,6.11,0.937,< 5.10,–,–
"Hs-578-T (breast, adherent)",0.78,6.06,0.98,< 5.00,0.815,5.52,0.889,< 5.10,–,–
"CHP-212 (neuroblastoma, adherent)",0.482,6.95,0.966,< 5.00,0.238,7.22,0.897,< 5.10,–,–
"NCI-H2052 (mesothelioma, adherent)",0.662,6.40,0.979,< 5.00,0.915,< 5.29,0.975,< 5.10,–,–
"HCC-827 (lung adenocarcinoma, adherent)",0.751,6.12,0.96,< 5.00,0.627,6.12,0.89,< 5.10,–,–
"NCI-H1703 (lung adenocarcinoma, adherent)",0.554,6.74,0.981,< 5.00,0.834,5.36,0.839,5.14,–,–
"LP-1 (myeloma, suspension)",0.993,< 5.70,0.993,< 5.00,0.374,6.82,0.99,< 5.10,–,–
"PFSK-1 (medulloblastoma, adherent)",0.894,< 5.70,0.898,< 5.00,0.655,6.05,0.971,< 5.10,–,–
"SW626 (ovary, adherent)",0.804,5.91,0.982,< 5.00,–,–,0.923,< 5.10,0.828,5.51
"CAL-85-1 (breast, adherent)",0.898,< 5.70,0.965,< 5.00,0.738,5.72,0.854,< 5.10,–,–
"HCT-116 (large intestine, adherent)",0.514,–,0.965,< 5.00,0.396,6.77,0.986,< 5.10,–,–
"VMRC-MELG (melanoma, adherent)",0.953,< 5.70,0.979,< 5.00,0.461,6.61,0.96,< 5.10,–,–
"MDA-MB-468 (breast, adherent)",0.716,6.31,0.988,< 5.00,0.817,5.56,0.955,< 5.10,–,–
"PA-1 (ovary, adherent)",0.538,6.81,0.993,< 5.00,0.115,7.53,0.986,< 5.10,–,–
"Calu-3 (lung adenocarcinoma, adherent)",0.881,< 5.70,0.983,< 5.00,0.776,5.59,0.828,5.17,–,–
"SUP-B15 (lymphoblastic leukaemia, suspension)",0.457,7.02,0.986,< 5.00,0.289,7.08,0.923,< 5.10,–,–
"SCC90 (head and neck, adherent)",0.826,5.70,0.981,< 5.00,–,–,0.954,< 5.10,0.864,< 5.40
"NCI-H1993 (lung adenocarcinoma, adherent)",0.97,< 5.70,0.855,< 5.00,0.701,5.85,0.93,< 5.10,–,–
"HL-60 (acute myeloid leukaemia, suspension)",0.531,6.82,0.99,< 5.00,0.341,6.91,0.979,< 5.10,–,–
"SNG-M (endometrium, adherent)",0.674,6.42,0.983,< 5.00,–,–,0.8,5.42,0.685,6.09
"G-292 Clone A141B1 (osteosarcoma, adherent)",0.816,< 5.70,0.893,< 5.00,0.869,< 5.29,0.755,5.36,–,–
"TMK-1 (stomach, adherent)",0.71,6.29,0.952,< 5.00,0.703,5.91,0.961,< 5.10,–,–
"DOV13 (ovary, adherent)",0.356,7.33,0.974,< 5.00,0.984,< 5.29,–,–,0.73,5.90
